Laboratory results taken from PMC9911399, “Two distinct binding modes provide the RNA-binding protein RbFox with extraordinary sequence specificity”.
Residue numbers refer to the chain shown, from its start. Some of the results follow.

T1: RBFOX1 RRM RbFoxmut (Fox-RRM*) (Homo sapiens, UniProt Q9NWB1 109-208, R118D;E147R;N151S;E152T)
T1 sequence: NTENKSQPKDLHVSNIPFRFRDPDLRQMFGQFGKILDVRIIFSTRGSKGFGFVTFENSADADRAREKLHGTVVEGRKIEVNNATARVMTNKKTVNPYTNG

B1: UCUCCCA (DNA:RNA)
RNA: GGGAGACCGGAAUUCAGAUUGUCCUCUCCCAUUAAAUCCCGUCGUAGCCACCA
DNA 1: CAATCTGAATTCCGGTCTCCC
DNA 2: TGGTGGCTACGACGGGATT
B2: GUUAGCU (DNA:RNA)
RNA: B1 RNA with U25G, C26U, C28A, C29G, A31U
DNA 1: CAATCTGAATTCCGGTCTCCC
DNA 2: TGGTGGCTACGACGGGATT
B3: CGCGCGC (DNA:RNA)
RNA: B1 RNA with U25C, C26G, U27C, C28G, C30G, A31C
DNA 1: CAATCTGAATTCCGGTCTCCC
DNA 2: TGGTGGCTACGACGGGATT
B4: UCGCGAU (DNA:RNA)
RNA: B1 RNA with U27G, C29G, C30A, A31U
DNA 1: CAATCTGAATTCCGGTCTCCC
DNA 2: TGGTGGCTACGACGGGATT
B5: GGGUUAG (DNA:RNA)
RNA: GGGAGACCGGAAUUCAGAUUGUCCGGGUUAGUUAAAUCCCGUCGUAGCCACCA
DNA 1: CAATCTGAATTCCGGTCTCCC
DNA 2: TGGTGGCTACGACGGGATT
B6: AUCAAAC (DNA:RNA)
RNA: B5 RNA with G25A, G26U, G27C, U28A, U29A, G31C
DNA 1: CAATCTGAATTCCGGTCTCCC
DNA 2: TGGTGGCTACGACGGGATT
B7: GGAUGGU (DNA:RNA)
RNA: B5 RNA with G27A, U29G, A30G, G31U
DNA 1: CAATCTGAATTCCGGTCTCCC
DNA 2: TGGTGGCTACGACGGGATT
B8: GAUUAUC (DNA:RNA)
RNA: B5 RNA with G26A, G27U, U29A, A30U, G31C
DNA 1: CAATCTGAATTCCGGTCTCCC
DNA 2: TGGTGGCTACGACGGGATT
B9: UUUCCAU (DNA:RNA)
RNA: B1 RNA with C26U, C30A, A31U
DNA 1: CAATCTGAATTCCGGTCTCCC
DNA 2: TGGTGGCTACGACGGGATT
B10: UAAGCAG (DNA:RNA)
RNA: B5 RNA with G25U, G26A, G27A, U28G, U29C
DNA 1: CAATCTGAATTCCGGTCTCCC
DNA 2: TGGTGGCTACGACGGGATT
B11: CCUUCGC (DNA:RNA)
RNA: B1 RNA with U25C, C28U, C30G, A31C
DNA 1: CAATCTGAATTCCGGTCTCCC
DNA 2: TGGTGGCTACGACGGGATT
B12: UCGAUUA (DNA:RNA)
RNA: B1 RNA with U27G, C28A, C29U, C30U
DNA 1: CAATCTGAATTCCGGTCTCCC
DNA 2: TGGTGGCTACGACGGGATT
B13: CGAACAG (DNA:RNA)
RNA: B5 RNA with G25C, G27A, U28A, U29C
DNA 1: CAATCTGAATTCCGGTCTCCC
DNA 2: TGGTGGCTACGACGGGATT
B14: GGAUUCU (DNA:RNA)
RNA: B5 RNA with G27A, A30C, G31U
DNA 1: CAATCTGAATTCCGGTCTCCC
DNA 2: TGGTGGCTACGACGGGATT
B15: CUCGCGU (DNA:RNA)
RNA: B1 RNA with U25C, C26U, U27C, C28G, C30G, A31U
DNA 1: CAATCTGAATTCCGGTCTCCC
DNA 2: TGGTGGCTACGACGGGATT
B16: UUAAGGC (DNA:RNA)
RNA: B1 RNA with C26U, U27A, C28A, C29G, C30G, A31C
DNA 1: CAATCTGAATTCCGGTCTCCC
DNA 2: TGGTGGCTACGACGGGATT
B17: CGUAAUU (DNA:RNA)
RNA: B5 RNA with G25C, G27U, U28A, U29A, A30U, G31U
DNA 1: CAATCTGAATTCCGGTCTCCC
DNA 2: TGGTGGCTACGACGGGATT
B18: GCCAGUA (DNA:RNA)
RNA: B1 RNA with U25G, U27C, C28A, C29G, C30U
DNA 1: CAATCTGAATTCCGGTCTCCC
DNA 2: TGGTGGCTACGACGGGATT
B19: GUAAAUG (DNA:RNA)
RNA: B5 RNA with G26U, G27A, U28A, U29A, A30U
DNA 1: CAATCTGAATTCCGGTCTCCC
DNA 2: TGGTGGCTACGACGGGATT
B20: UUCCGCC (DNA:RNA)
RNA: B1 RNA with C26U, U27C, C29G, A31C
DNA 1: CAATCTGAATTCCGGTCTCCC
DNA 2: TGGTGGCTACGACGGGATT

biological target: T1, RBFOX1 RRM RbFoxmut (Fox-RRM*); test: EMSA; HiTS-Eq, 1 nM pool, 10 min; buffer printed only for the single-RNA assays: 10 mM Tris pH 7.5, 150 mM NaCl, 3.4 mM EDTA, 0.001% NP-40, 30 C; settings: tags: His6 N-terminal (pET28a); label: 5' 32P
In short: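 Purified RbFox RRM, wild type or mutant, was incubated for 10 min in 50 µL with 1 nM of a 5′-radiolabelled RNA pool carrying 7 randomized nucleotides, whose flanks were annealed to DNA oligonucleotides, over a series of increasing protein concentrations. Unbound RNA was resolved on 8% native PAGE, cut out, reverse-transcribed, barcoded by PCR and sequenced on an Illumina HiSeq 2500. Relative association constants were derived from changes in read counts for each RNA species versus the control reaction and normalised to the cognate motif.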

Row | Binder | binding signal
1 | B1 | 0.0816 KA relative to UGCAUGU
2 | B2 | 0.104 KA relative to UGCAUGU
3 | B3 | 0.117 KA relative to UGCAUGU
4 | B4 | 0.0691 KA relative to UGCAUGU
5 | B5 | 0.161 KA relative to UGCAUGU
6 | B6 | 0.0814 KA relative to UGCAUGU
7 | B7 | 0.201 KA relative to UGCAUGU
8 | B8 | 0.0782 KA relative to UGCAUGU
9 | B9 | 0.0757 KA relative to UGCAUGU
10 | B10 | 0.0802 KA relative to UGCAUGU
11 | B11 | 0.0843 KA relative to UGCAUGU
12 | B12 | 0.114 KA relative to UGCAUGU
13 | B13 | 0.0626 KA relative to UGCAUGU
14 | B14 | 0.0942 KA relative to UGCAUGU
15 | B15 | 0.136 KA relative to UGCAUGU
16 | B16 | 0.0968 KA relative to UGCAUGU
17 | B17 | 0.0779 KA relative to UGCAUGU
18 | B18 | 0.104 KA relative to UGCAUGU
19 | B19 | 0.125 KA relative to UGCAUGU
20 | B20 | 0.0939 KA relative to UGCAUGU
